According to article PMC10726135:
Some of the results follow. At the low end of the ranking, values are background and their order means little. The protein was read in a cell extract, so binding may be indirect.

Molecular target: T1, HNF4alpha2 (COS-7 nuclear extract) (UniProt P41235)
T1 sequence: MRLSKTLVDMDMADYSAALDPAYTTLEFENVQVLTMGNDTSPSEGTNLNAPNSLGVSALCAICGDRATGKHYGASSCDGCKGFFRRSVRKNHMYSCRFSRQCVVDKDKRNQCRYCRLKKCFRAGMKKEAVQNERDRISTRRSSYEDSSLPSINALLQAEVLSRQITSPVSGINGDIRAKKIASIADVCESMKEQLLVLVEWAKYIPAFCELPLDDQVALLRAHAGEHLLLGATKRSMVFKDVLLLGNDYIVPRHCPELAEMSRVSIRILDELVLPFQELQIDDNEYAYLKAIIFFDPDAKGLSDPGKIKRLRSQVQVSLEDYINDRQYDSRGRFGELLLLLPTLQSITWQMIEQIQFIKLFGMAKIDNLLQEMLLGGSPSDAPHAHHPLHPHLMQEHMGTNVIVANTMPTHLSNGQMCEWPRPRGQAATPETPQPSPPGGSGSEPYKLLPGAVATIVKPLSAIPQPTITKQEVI
Test: protein-binding microarray
Settings: COS-7 nuclear extract on double-stranded Agilent 4x180k PBM; binding buffer, salt, pH and temperature not given; high values mean tight binding; double strand, one strand shown; sequences stand for … in …GCCTAGGGAGATTAGAGTATCGGTCGA

| Sequence | binding signal (log2 normalized intensity) |
| --- | --- |
| TTAGACATGTTTACTTTTGCAAGGTTTGTT | 1.75 |
| TCCTTCAAAGATTGTGAGACAAGAGAAGAG | -1.21 |
| TAAATAAAGTGGTAGCCCACAATCAGTCTG | -0.683 |
| CCACTGTTCTCTCTAGAGAGAACAGATCTT | -0.63 |
| AGTCCCTGAGTATTATCTTTTTAATCAATA | 0.0567 |
| GAGGAATCCCATTCCCTCTAATCTGGGACA | -0.632 |
| CATGGATGACCTCTTTTAGTAACTGACTTT | 1.62 |
| AGCTCGCTCAGCTGGTTGCCCCTTTGACCC | 7.89 |
| GGGTGAGTGCATGAATCAACTGTTGTGGAC | 1.67 |
| AACGCTAGACACTGGGGACTAGTAGAGTGG | -1.16 |
| TGTCTTTTCTCCCCTGACTACCAGCCAGTA | 1.3 |
| AGGAATCCTGACCAGGGGCCAGCAAGAGGT | -1.13 |
| GGAAGGGCTTTATGACCAGTGTGTTGTGCT | 1 |
| GATGTTGGGAGGAGTGGACTTTGATCTCAG | 8.9 |
| AAAGAGACATCTGGGAACAAGTTCTGCAGA | -1.21 |
| GGTCCCTGGAGATAATAGTGGCTGAAAGTA | -1.04 |
| CAGTGAACAAAACATGGATTTTGGAGCCAA | 0.372 |
| GTTAGACTACTTATCTCCAAGACCCTTCAT | -0.7 |
| TTTCAATTACAAAGCAACACAATGCATATC | -0.588 |
| CATCTGCCCAGCAGAGCAGTTTAGAGAAAG | -1.15 |
| ATCTAAGCTGGACTTTGAACTTCATGTGTG | 7.91 |
| CCAAAGTCCAAAGTCCAGTCTTATCTGAGA | 7.12 |
| TTATAATCGCAGAATAAACGCTGAAGTCTC | -0.997 |
| AGGCTGAGCCTAGGAGTTCAATGCTTCAGT | -0.824 |

| Sequence | binding signal (log2 normalized intensity) |
| --- | --- |
| TTAGGGGTTAGGGTTAGGGTTAGGGTTACG | 1.29 |
| CCACATTCTCCACTGGGAAGTAGAAGAAAG | -1.11 |
| TTGATCAAAGGTTGGACTGAGGACCACATG | 1.87 |
| CCAGAGCCAAAGGGCATATTGACTGCCCCA | 2.24 |
| CTGTTCTGTTCCCTGGACTCAGCTCCCATA | 1.12 |
| TTATGAGGCCTAACTGGCTTTGTCTGCTCA | -0.507 |
| CGAGTCCCTGCTGTGTCACGTACCGGCTAG | -0.974 |
| GTGTGCTTTGTAGCACTTTGGACCTCCACT | 4.25 |
| GAAGACTTCGCTGGAATGTCACAGGGATTA | -1.01 |
| GGTCCTACTCACACTCAAGGCAAGAGAGTC | -1.08 |
| TGAGGCCAGACAGGGGGGCGCCTACGGACG | -1.23 |
| GAAACAGTCACAGTTATCAGACAGAGGAAT | -1.16 |
| AACAAATCCAGGCAGGACTCTGTCCTGGGC | -0.976 |
| CCATCAAGGATCAAGGACCTGCTCTGGGGC | -1.07 |
| TCTTTCTCCAACTGCTCCTCTTCAACTGAT | 0.529 |
| AGATGAAAGCTTCTGCGGAAATAATTGATT | -1.05 |
| AAGACCCAAGGCGTATGAAGCTTTGACCCT | 4.42 |
| GGAGGCACTCATGGTGTTTGCTTTGTGAAG | 0.486 |
| TATGATCTTTCATTCCTATTGTCCCATCTC | 1.24 |
| AACCAGAGAATCTCTCATTTCAAGGCTGGC | -1.12 |
| TCTTCCAGTTCATTTCTGTATCCCTGTTAT | 1.96 |
| ACGTCAGAACTGTCCTTTAACCTCCCTGCA | 1.99 |
| GGGACAGCACTGGCATGCAGCAGGGGAATG | -1.05 |
| CCACCCCCTCCACCCCTGCCTTTCATTCTC | 4.45 |

| Sequence | binding signal (log2 normalized intensity) |
| --- | --- |
| GATGAGAAACTTATTGTGAACTGGAGCAAA | -0.765 |
| ATCCCTGCAGCCCACAGCCCGCTGTGCCTG | -1.21 |
| AAATTGCTCAGTGCCTTCTCTAATGACTGA | -0.941 |
| TGTCAGACAAACAGACTTCACACTAGAAGA | -1.14 |
| AGGCTTCTAGAAGAGGTTAAAGACCTTTGG | 4.01 |
| CTCCCTGCATTCCATTTCTGCCCCTTGCTC | 3.66 |
| ATAAAGCAGGGAGAGTTGCACCCAGGCCGT | -1.19 |
| ACAAGGGTACCAACAGGTCCAAGGTTCAGA | 3.95 |
| TCAAGGATGTTTATACAGCCTTGGAAGACA | -0.976 |
| CCATAGGCAGCTTCAGGATGAAGGCTGCTG | -1.27 |
| TCTTTCAGGGTGGGAAAGGAATGTAATGTA | 1.43 |
| ATCTTGGGTTAGGCCTTTAGAGGATTTACT | -0.708 |
| GAAGATCGCAGACTTTGGACTCTGCAAGGA | 5.8 |
| CTTTAGATTCTTACAGGCAATTGATAATGA | 0.99 |
| TTTTCTGCTGCATGCCACACATTGCTGCCA | -1.06 |
| CAGGCATTAACCCTTTAGTGCCTGGATCTT | 0.932 |
| TCGTCCAGTTACTGAAAGGGAACCCTAATC | -0.95 |
| GAGCAGGGAGCGAGACGCTGAGCTTCTGCG | -1.21 |
| GGACTTTGGTCTGCTGAGTCTCATGATTAG | 4.48 |
| GGCCTCCAGAAGGAATGCAGCCCTGCCACT | -1.14 |
| GGCATGCATATGAGTAATGTGAAGACTTCG | 0.707 |
| TTTGAACTGTGTTGCAAATTATTACTCCCA | 1.03 |
| CTTTGGCCAAATAATAGCATTGTAGTAATA | 1.59 |
| AGTTTCCCTTGATCAAAAACTGCCTAAATC | -0.795 |

| Sequence | binding signal (log2 normalized intensity) |
| --- | --- |
| ATGTGTTTGCTTTTTACCATCTCCAACATG | 0.607 |
| GAGCAGTCCTGCACATGAATGATCAAAGGT | 1.54 |
| TAAATACTTCTCCTCTTATCTTCAGGTTTG | 1.45 |
| TACCGGCTAGACAAACAGCTTCTGTCCTAA | -1.25 |
| AGGGCAAAGGTCACCAGCTAAGCTGTTACT | 5.12 |
| ACAGTCCAGTGACTATCTGCTACTTAAGAT | -0.769 |
| GTGGGAGGTGAGGAAAACGGAGACAGAAAC | -1.1 |
| GGGGTGGGGACCAGTGGGGGGAAGCTCTGT | -1.04 |
| GGGAGCTCCCTCTGTTGGTGGCACAGGGAA | -0.739 |
| ATGGAGAGTGGAAGACTGCACCAAAATAAA | -1.18 |
| TCATCTGAACTCTGACCAACGCCTCCCTCC | 2.23 |
| TGGTGTGAACCAGGGTTAAGGTTTTGTAAC | 1.72 |
| AGCTTGGCCAAAGTACGCTCCACCCCTCAG | 3.28 |
| TAAGAGTGAACTCTGACCATGCCTATAAAT | 1.4 |
| GGTGATTGGTGAGTCTTAGGGAGGGGCCAG | -1.07 |
| ATCTCTCCTAGAGAAAGGGGCTTAGGGAGG | -1.3 |
| AGCAGGGCGTGGACTTCGCTCCGCCGCTAG | 3.59 |
| CCTGTGGGGGAGGTGCAGAGAGGGGCAGGG | -0.725 |
| TGACCACGGGGGCCGCTCTCCCTCCAGGCC | -1.21 |
| GTCAGATTTTATTTACACACAGGGAGATGG | -0.199 |
| AAAGTGCAACTACAAGGAGCAGCCTAGTAA | -1.27 |
